Assay results: PubChem BioAssay (NCI)
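In this assay, cells in 96-well plates receive the compound at five concentrations for 48 hours. Endpoints are linearly interpolated between the surrounding concentrations. At the GI50, growth is halved.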 The source holds more than one record for some entries. This is not the full list of results. An entry can have further records. A record mostly stands for its own series of concentrations, which the source does not state; some values may only mark the edge of a range. A tag in brackets gives the origin of a value. A, B and so on number the origins entry by entry.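 At the TGI there is no net growth.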

Assays:
Assay in all cases: inhibition of tumour cell growth, NCI panel, 48 h
NCI-H226 lung = tested on: NCI-H226 lung
NCI-H23 lung = tested on: NCI-H23 lung
NCI-H460 lung = tested on: NCI-H460 lung
NCI-H522 lung = tested on: NCI-H522 lung
OVCAR-3 ovarian = tested on: OVCAR-3 ovarian
OVCAR-4 ovarian = tested on: OVCAR-4 ovarian
OVCAR-5 ovarian = tested on: OVCAR-5 ovarian
OVCAR-8 ovarian = tested on: OVCAR-8 ovarian
RPMI-8226 leukemia = tested on: RPMI-8226 leukemia
RXF 393 renal = tested on: RXF 393 renal
SF-268 CNS = tested on: SF-268 CNS
SF-295 CNS = tested on: SF-295 CNS
SF-539 CNS = tested on: SF-539 CNS
SK-MEL-2 melanoma = tested on: SK-MEL-2 melanoma
SK-MEL-28 melanoma = tested on: SK-MEL-28 melanoma
SK-MEL-5 melanoma = tested on: SK-MEL-5 melanoma
SK-OV-3 ovarian = tested on: SK-OV-3 ovarian
SN12C renal = tested on: SN12C renal
SNB-19 CNS = tested on: SNB-19 CNS
SNB-75 CNS = tested on: SNB-75 CNS
SR leukemia = tested on: SR leukemia
SW-620 colon = tested on: SW-620 colon
TK-10 renal = tested on: TK-10 renal
U251 CNS = tested on: U251 CNS
UACC-257 melanoma = tested on: UACC-257 melanoma
UACC-62 melanoma = tested on: UACC-62 melanoma
UO-31 renal = tested on: UO-31 renal
XF 498 CNS = tested on: XF 498 CNS

With O=C1NC2C(CC(O)C(O)C2O)c2cc3c(c(O)c21)OCO3 (stereo unspecified) the GI50 (NCI-H226 lung) was 82.1 nM, < 14.1 nM [sample A, mean of 2 tests] and 2.17 µM [sample B, mean of 2 tests], the TGI (NCI-H226 lung) was 259 nM, 44.1 nM [sample A, mean of 2 tests] and 7.13 µM [sample B, mean of 2 tests] and the GI50 (NCI-H23 lung) was 46.5 nM, < 13.6 nM [sample A, mean of 2 tests] and 2.58 µM [sample B, mean of 2 tests]. For the same compound, the TGI (NCI-H23 lung) was 219 nM, 49 nM [sample A, mean of 2 tests] and 8.72 µM [sample B, mean of 2 tests], the GI50 (NCI-H460 lung) was 44.9 nM, < 12.1 nM [sample A, mean of 2 tests] and 1.79 µM [sample B, mean of 2 tests] and the TGI (NCI-H460 lung) was 473 nM, 57.5 nM [sample A, mean of 2 tests] and 8.89 µM [sample B, mean of 2 tests]. The GI50 (NCI-H522 lung) was 44.5 nM [sample A, 1 test] and < 11.4 nM [sample A, mean of 2 tests] and 1.53 µM [sample B, mean of 2 tests], the TGI (NCI-H522 lung) was 328 nM [sample A, 1 test] and 26.4 nM [sample A, mean of 2 tests] and 4.52 µM [sample B, mean of 2 tests] and the GI50 (OVCAR-3 ovarian) was 65.5 nM, < 15.3 nM [sample A, mean of 2 tests] and 2.68 µM [sample B, mean of 2 tests]. The TGI (OVCAR-3 ovarian) was 385 nM, 61 nM [sample A, mean of 2 tests] and 10.6 µM [sample B, mean of 2 tests], the GI50 (OVCAR-4 ovarian) was 32.1 nM, < 11.5 nM [sample A, mean of 2 tests] and 1.85 µM [sample B, mean of 2 tests] and the TGI (OVCAR-4 ovarian) was 217 nM, 43.2 nM [sample A, mean of 2 tests] and 8.36 µM [sample B, mean of 2 tests]. For the same compound, the GI50 (OVCAR-5 ovarian) was 190 nM, 25.6 nM [sample A, mean of 2 tests] and 5.01 µM [sample B, mean of 2 tests], the TGI (OVCAR-5 ovarian) was 636 nM, 79.2 nM [sample A, mean of 2 tests] and 26.4 µM [sample B, mean of 2 tests] and the GI50 (OVCAR-8 ovarian) was 41.3 nM, < 16.8 nM [sample A, mean of 2 tests] and 2.65 µM [sample B, mean of 2 tests]. The TGI (OVCAR-8 ovarian) was 321 nM, 235 nM [sample A, mean of 2 tests] and > 45.8 µM [sample B, mean of 2 tests], the GI50 (RPMI-8226 leukemia) was 11.1 nM [sample A, 1 test] and 40.6 nM [sample A, mean of 2 tests] and 1.89 µM [sample B, 1 test] and the TGI (RPMI-8226 leukemia) was 44.2 nM [sample A, 1 test] and 225 nM [sample A, mean of 2 tests] and 6.84 µM [sample B, 1 test]. The GI50 (RXF 393 renal) was 26.8 nM [sample A, 1 test] and 85.2 nM [sample A, mean of 2 tests] and 2.96 µM [sample B, 1 test], the TGI (RXF 393 renal) was 138 nM [sample A, 1 test] and 262 nM [sample A, mean of 2 tests] and 16.2 µM [sample B, 1 test] and the GI50 (SF-268 CNS) was 44.4 nM, < 15.9 nM [sample A, mean of 2 tests] and 1.38 µM [sample B, mean of 2 tests]. For the same compound, the TGI (SF-268 CNS) was 300 nM, 82.4 nM [sample A, mean of 2 tests] and 8.66 µM [sample B, mean of 2 tests], the GI50 (SF-295 CNS) was 94.8 nM, 20.2 nM [sample A, mean of 2 tests] and 3.81 µM [sample B, mean of 2 tests] and the TGI (SF-295 CNS) was 520 nM, 143 nM [sample A, mean of 2 tests] and 35.1 µM [sample B, mean of 2 tests]. The GI50 (SF-539 CNS) was 51.6 nM, < 13.4 nM [sample A, mean of 2 tests] and 2.32 µM [sample B, mean of 2 tests], the TGI (SF-539 CNS) was 206 nM, 35.9 nM [sample A, mean of 2 tests] and 6.44 µM [sample B, mean of 2 tests] and the GI50 (SK-MEL-2 melanoma) was 46.6 nM [sample A, 1 test] and < 16.5 nM [sample A, mean of 2 tests] and 2.28 µM [sample B, mean of 2 tests]. For the same compound, the TGI (SK-MEL-2 melanoma) was 362 nM [sample A, 1 test] and 66.8 nM [sample A, mean of 2 tests] and 10 µM [sample B, mean of 2 tests], the GI50 (SK-MEL-28 melanoma) was 41.4 nM, 14.3 nM [sample A, mean of 2 tests] and 2.54 µM [sample B, mean of 2 tests] and the TGI (SK-MEL-28 melanoma) was 276 nM, 75.6 nM [sample A, mean of 2 tests] and 11.7 µM [sample B, mean of 2 tests]. The GI50 (SK-MEL-5 melanoma) was 45 nM, < 10 nM [sample A, 1 test] and 1.68 µM [sample B, mean of 2 tests], the TGI (SK-MEL-5 melanoma) was 194 nM, 446 nM [sample A, 1 test] and 27.4 µM [sample B, mean of 2 tests] and the GI50 (SK-OV-3 ovarian) was 141 nM, < 21.2 nM [sample A, mean of 2 tests] and 913 nM [sample B, mean of 2 tests]. The TGI (SK-OV-3 ovarian) was 639 nM, 191 nM [sample A, mean of 2 tests] and 16.7 µM [sample B, mean of 2 tests], the GI50 (SN12C renal) was 48.8 nM, 15.8 nM [sample A, mean of 2 tests] and 2.22 µM [sample B, mean of 2 tests] and the TGI (SN12C renal) was 367 nM, 104 nM [sample A, mean of 2 tests] and 13 µM [sample B, mean of 2 tests]. For the same compound, the GI50 (SNB-19 CNS) was 31.8 nM, < 10 nM [sample A, mean of 2 tests] and 2.05 µM [sample B, mean of 2 tests], the TGI (SNB-19 CNS) was 293 nM, 43.6 nM [sample A, mean of 2 tests] and 14.4 µM [sample B, mean of 2 tests] and the GI50 (SNB-75 CNS) was 36.5 nM, < 21 nM [sample A, mean of 2 tests] and 711 nM, 966 nM [sample B, mean of 2 tests]. For the same compound, the TGI (SNB-75 CNS) was 306 nM, 160 nM [sample A, mean of 2 tests] and 14.9 µM [sample B, mean of 2 tests], the GI50 (SR leukemia) was 19.9 nM [sample A, 1 test] and < 11.2 nM [sample A, mean of 2 tests] and 2.14 µM [sample B, mean of 2 tests] and the TGI (SR leukemia) was 83.7 nM [sample A, 1 test] and 30.5 nM [sample A, mean of 2 tests] and 6.46 µM [sample B, mean of 2 tests]. The GI50 (SW-620 colon) was 47.2 nM, < 14.8 nM [sample A, mean of 2 tests] and 3.05 µM [sample B, mean of 2 tests], the TGI (SW-620 colon) was 678 nM, 69.6 nM [sample A, mean of 2 tests] and 23.4 µM [sample B, mean of 2 tests] and the GI50 (TK-10 renal) was 163 nM, 34.1 nM [sample A, mean of 2 tests] and 4.74 µM [sample B, mean of 2 tests]. The TGI (TK-10 renal) was 678 nM, 381 nM [sample A, mean of 2 tests] and 52.5 µM [sample B, mean of 2 tests], the GI50 (U251 CNS) was 40.1 nM, < 11.8 nM [sample A, mean of 2 tests] and 1.33 µM [sample B, mean of 2 tests] and the TGI (U251 CNS) was 457 nM, 92.4 nM [sample A, mean of 2 tests] and 6.52 µM [sample B, mean of 2 tests]. For the same compound, the GI50 (UACC-257 melanoma) was 53.2 nM, 17.4 nM [sample A, mean of 2 tests] and 2.21 µM [sample B, mean of 2 tests], the TGI (UACC-257 melanoma) was 287 nM, 87.9 nM [sample A, mean of 2 tests] and 12.6 µM [sample B, mean of 2 tests] and the GI50 (UACC-62 melanoma) was 61.3 nM, 15.5 nM [sample A, mean of 2 tests] and 2.23 µM [sample B, mean of 2 tests]. For the same compound, the TGI (UACC-62 melanoma) was 319 nM, 72.5 nM [sample A, mean of 2 tests] and 14 µM [sample B, mean of 2 tests], the GI50 (UO-31 renal) was 94.4 nM, 27 nM [sample A, mean of 2 tests] and 2.62 µM [sample B, mean of 2 tests] and the TGI (UO-31 renal) was 415 nM, 114 nM [sample A, mean of 2 tests] and 16.1 µM [sample B, mean of 2 tests]. For the same compound, the GI50 (XF 498 CNS) was 22.4 nM, < 10.4 nM [sample A, mean of 2 tests] and 933 nM [sample B, mean of 2 tests] and the TGI (XF 498 CNS) was 142 nM, 43.7 nM [sample A, mean of 2 tests] and 5.46 µM [sample B, mean of 2 tests].
